Results from patent US20050089932A1, “Novel proteins with targeted binding” (Avidia Research Institute, priority 2001, published 2005).

Key:
human IgE [1] = molecular target: T1, human IgE (Homo sapiens, UniProt P01854); assay: Phage binding to immobilized human IgE (panning, epitope mapping)
[2] = molecular target: human IgE / recombinant FcERI (Homo sapiens, UniProt P01854); assay: ELISA competition with recombinant human FcERI for IgE; type: binding
human IgE [3] = molecular target: T1, human IgE; assay: Biacore affinity measurements on immobilized human IgE; type: binding; settings: IgE on CM5 chip

T1 sequence (P01854 1-427 limits assumed): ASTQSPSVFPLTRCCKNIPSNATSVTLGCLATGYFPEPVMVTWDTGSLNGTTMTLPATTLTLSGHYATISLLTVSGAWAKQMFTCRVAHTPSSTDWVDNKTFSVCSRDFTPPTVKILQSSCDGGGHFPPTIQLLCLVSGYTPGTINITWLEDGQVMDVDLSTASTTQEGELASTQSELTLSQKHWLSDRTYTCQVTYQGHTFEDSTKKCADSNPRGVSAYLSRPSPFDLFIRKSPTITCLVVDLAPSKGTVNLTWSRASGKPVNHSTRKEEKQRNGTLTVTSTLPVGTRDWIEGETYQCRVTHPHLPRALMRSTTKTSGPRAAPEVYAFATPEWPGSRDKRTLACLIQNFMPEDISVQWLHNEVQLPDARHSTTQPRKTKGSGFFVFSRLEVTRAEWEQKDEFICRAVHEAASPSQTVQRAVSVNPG
Chain of human IgE / recombinant FcERI (P01854 1-427 limits assumed): as above

IgE1: A-domain monomer binding human IgE, single sequence of the majority of the selected phage clones (CPANEFQCRNSSTCIPRRWLCDGDDDCGDGSDETGCSAPASEPPGSLSLQ)
affinity for IgE relative to other sequences tested (human IgE [1]): highest affinity of all the sequences tested
competition with α-Cε2 antibody (human IgE [1]; IgE immobilized via antibody against Cε2): not the α-Cε2 antibody
competition with α-Cε3 antibody (human IgE [1]; IgE immobilized via antibody against Cε3): competed with the α-Cε3 antibody
competition with IgE receptor (FcERI) binding [2]: competes for the natural receptor epitope
ka (human IgE [3]): 2.4 × 10^4
kd (human IgE [3]): 2.7 × 10^−2
